From the DeepSol protein solubility set

Assay: soluble on expression in E. coli; label from the status in PepcDB or PDB records

## HHHHHHMNTINIAKNDFSDIELAAIPFNTLADHYGERLAREQLALEHESYEMGEARFRKMFERQLKAGEVADNAAAKPLITTLLPKMIARINDWFEEVKAKRGKRPTAFQFLQEIKPEAVAYITIKTTLACLTSADNTTVQAVASAIGRAIEDEARFGRIRDLEAKHFKKNVEEQLNKRVGHVYKKAFMQVVEADMLSKGLLGGEAWSSWHKEDSIHVGVRCIEMLIESTGMVSLHRQNAGVVGQDSETIELAPEYAEAIATRAGALAGISLMFQPCVVPPKPWTGITGGGYWANGRRPLALVRTHSKKALMRYEDVYMPEVYKAINIAQNTAWKINKKVLAVANVITKWKHCPVEDIPAIEREELPMKPEDIDMNPEALTAWKRAAAAVYRKDKARKSRRISLEFMLEQANKFANHKAIWFPYNMDWRGRVYAVSMFNPQGNDMTKGLLTLAKGKPIGKEGYYWLKIHGANCAGVDKVPFPERIKFIEENHENIMACAKSPLENTWWAEQDSPFCFLAFCFEYAGVQHHGLSYNCSLPLAFDGSCSGIQHFSAMLRDEVGGRAVNLLPSETVQDIYGIVAKKVNEILQADAINGTDNEVVTVTDENTGEISEKVKLGTKALAGQWLAYGVTRSVTKRSVMTLAYGSKEFGFRQQVLEDTIQPAIDSGKGLMFTQPNQAAGYMAKLIWESVSVTVVAAVEAMNWLKSAAKLLAAEVKDKKTGEILRKRCAVHWVTPDGFPVWQEYKKPIQTRLNLMFLGQFRLQPTINTNKDSEIDAHKQESGIAPNFVHSQDGSHLRKTVVWAHEKYGIESFALIHDSFGTIPADAANLFKAVRETMVDTYESCDVLADFYDQFADQLHESQLDKMPALPAKGNLNLRDILESDFAFA
  soluble on expression in E. coli: soluble
